Experimental findings from PubChem BioAssay AID1240 (Sanford-Burnham Center for Chemical Genomics, 2008) are described below.

Molecules are shown by their SMILES. In all, about 50,000 compounds went through this assay and about 800 (1.6%) showed an effect of 50% or more. The list shows a part of the results.

The assay has as its target Bcl-2-like protein 10 (Homo sapiens) (UniProt Q9HD36). As to the kind of experiment: TR3 peptide-Bcl-B binding displacers, biochemical primary FP assay, phenotype converters (AID 1240).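 Note: 0% = Bcl-B with tracer peptide and DMSO and 100% = tracer peptide lacking Bcl-B.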 To be noted: GST-Bcl-B / FITC-TR3 peptide fluorescence polarization; stronger effect = higher value; compound at 3.75 mg/L. In general terms: In fluorescence polarisation assays a small probe gives low polarisation when free and higher when bound to something large.
Sequence of UniProt Q9HD36 (Q9HD36 whole entry, looked up): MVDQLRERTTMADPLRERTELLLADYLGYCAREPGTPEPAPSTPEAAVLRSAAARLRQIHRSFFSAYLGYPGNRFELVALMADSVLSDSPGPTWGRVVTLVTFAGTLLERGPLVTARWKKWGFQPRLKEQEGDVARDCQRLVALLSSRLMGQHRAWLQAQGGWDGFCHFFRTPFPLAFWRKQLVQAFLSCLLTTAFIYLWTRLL
In the case of `CCN1CCN(Cc2c(C)[nH]c3c(Cl)cccc3c2=O)CC1`, the displacement was -5.8%.

As for `NNC(=O)CN1C(CN2CCOCC2)=Nc2ccc(Br)cc2C1c1ccccc1` (stereo not drawn), the displacement is -14.1%.

As to `Cc1ccc(CN2CCN(C3CCCCC3)CC2)cc1`, the displacement was -11.3%.

Regarding `O=C(NCC1CCCO1)c1ccc(Cl)cc1Cl` (stereo not drawn), the displacement was -6%.

On to `COc1ccc(CCNC(=S)Nc2ccc(OC)cc2)cc1`, for which the displacement is -9.1%.

On to `COc1ccccc1OCC(=O)NC(C)C(=O)O` (stereo not drawn), for which the displacement was determined as 9.1%.

With `COC(=O)C1=C(C)NC2=C(C(=O)c3ccccc32)C1c1cccs1` (stereo not drawn), the displacement is 15%.

Regarding `Cc1ccc(C(=O)Nc2sc3c(c2C(=O)N2CCC(C(N)=O)CC2)CCCC3)cc1`, the displacement is -1.1%.

With `O=C(Nc1ccc(F)cc1F)c1cc2ccccc2oc1=O`, the displacement was -7.9%.

As for `CCOC(=O)C(C)Oc1ccc2c(oc(=O)c3ccccc32)c1C` (stereo not drawn), the displacement stood at 13.7%.

Take `CC(NS(=O)(=O)c1ccc(F)cc1)C1C2CC3CC(C2)CC1C3` (stereo not drawn): the displacement was found to be 3.6%.

In the case of `Cc1cc(Br)ccc1N1C(=O)CCC1=O`, the displacement was -3.8%.

With `CCC1C(=O)N=C(SCC(=O)Nc2ccccn2)NC1=O` (stereo not drawn), the displacement worked out at 11%.

With `CC1=C(C(=O)Nc2ccc(Br)cc2)C(c2ccc([N+](=O)[O-])cc2)NC(=S)N1` (stereo not drawn), the displacement is 11.2%.

As for `CCCOc1ccc(N2C(=O)CC(Nc3ccc(C(=O)OC)cc3)C2=O)cc1` (stereo not drawn), the displacement was determined as 7.8%.

`O=C(CSc1nc2ccc(N3C(=O)c4ccccc4C3=O)cc2s1)Nc1cccc([N+](=O)[O-])c1`: the displacement is -99.9%.

For the compound `NN1C(=O)/C(=C/c2ccc(Cl)cc2)N=C1c1ccccc1`, the displacement is -5.3%.

Turning to `CC(C)C(=O)Nc1ccc(O)c(-c2nc3ccccc3s2)c1`, the displacement is -4.4%.

As to `CCN1C(=O)/C(=C\c2ccc(-c3ccccc3C(=O)OC)o2)SC1=S`, the displacement was determined as 5.6%.

On to `CC1=NN(C(=O)COc2ccccc2)C(O)(C(F)(F)F)C1` (stereo not drawn), for which the displacement is -4%.

In the case of `Cc1ccc(N=Cc2cccc([N+](=O)[O-])c2)cc1F`, the displacement is -7.8%.

Consider `O=C(NC(CO)C(O)c1ccc([N+](=O)[O-])cc1)c1ccc2ccccc2n1` (stereo not drawn), for which the displacement was found to be 13.7%.

As to `O=C1CC(N2CCN(CCO)CC2)C(=O)N1c1ccc(Cl)cc1` (stereo not drawn), the displacement was 4.5%.

As for `O=C(CSc1nnnn1-c1ccccc1)c1ccc2c(c1)Cc1ccccc1-2`, the displacement was -26.7%.

As for `O=C(Nc1ccc(Oc2ccc(NC(=O)C(F)(F)F)cc2)cc1)C(F)(F)F`, the displacement worked out at 4.2%.

Consider `CCOC(=O)C(CCCCCOc1cc(C)ccc1C)C(=O)OCC`, for which the displacement is 10.8%.

In the case of `O=C1NC(=Nc2ccc(O)cc2)S/C1=C\c1ccc(F)cc1`, the displacement came to 7.7%.

In the case of `NS(=O)(=O)c1ccc(N2N=C(/C=C/c3ccc(F)cc3)CC2c2ccc(F)cc2)cc1` (stereo not drawn), the displacement was -57.8%.

For `COc1ccc(Br)cc1C(=O)Nc1c(C)ccc2nsnc12`, the displacement is -20.5%.

In the case of `O=C1/C(=C/c2ccc(Br)cc2)SC(=S)N1/N=C/c1ccc(Br)cc1`, the displacement was determined as 39.3%.

With `COc1ccc(C(NC(=O)c2ccccc2)c2ccc(OC)cc2)cc1`, the displacement was -3%.

On to `CCn1cc(/C=C(/C#N)C(=O)Nc2ccc(Cl)cc2)c2ccccc21`, for which the displacement came to 6.9%.

`Cc1ccc(C(=O)NC2CC(C)(C)NC(C)(C)C2)cc1[N+](=O)[O-]`: the displacement was -3.2%.

Turning to `Cc1cc(C(=O)NC2CCSC2=O)ccc1[N+](=O)[O-]` (stereo not drawn), the displacement is -2.7%.

As to `COc1cc(NC(=O)c2nn3c(c2Br)NC(c2cccs2)CC3C(F)(F)F)c(OC)cc1Cl` (stereo not drawn), the displacement turned out to be 6.7%.

Regarding `Cc1ccc(S(=O)(=O)N/N=C/C=C/c2ccc(N(C)C)cc2)cc1[N+](=O)[O-]`, the displacement is -15.4%.

Regarding `COc1cc(C(=O)NC(NC(=S)Nc2ccc(Cl)cc2Cl)C(Cl)(Cl)Cl)cc(OC)c1OC` (stereo not drawn), the displacement is -2.4%.

For the compound `O=C(Nc1ccc(F)c([N+](=O)[O-])c1)c1cccc2ccccc12`, the displacement was -4.6%.

For the compound `O=S(=O)(c1ccc(Br)cc1)N1CCN(c2ccccc2)CC1`, the displacement was found to be 13.8%.

Regarding `CC(NC(=O)COc1ccccc1O)C1CC2CCC1C2` (stereo not drawn), the displacement is 9.7%.

`OCC(CO)C(c1ccccc1)c1ccccc1`: the displacement stood at 15.1%.

Regarding `O=C(NCCCn1ccnc1)NC1CCCCC1`, the displacement is -1.6%.

Consider `CCOC(=O)/C(=C\Nc1ccc(F)c(F)c1F)[N+](=O)[O-]`, for which the displacement worked out at 15.4%.

In the case of `Cc1c(Cl)cccc1NC(=O)c1cc2c(C)nn(-c3ccccc3)c2s1`, the displacement is -0.3%.

In the case of `CCC1=NN2C(=N)/C(=C/c3cc(Br)c(OCc4ccc(F)cc4)c(OC)c3)C(=O)N=C2S1`, the displacement turned out to be 12.4%.

With `COc1cc(Br)cc(/C=C2/C(=O)NN(c3ccccc3)C2=O)c1O`, the displacement was determined as 33.3%.

Regarding `O=C(NNc1ccccc1)C(O)(Cc1ccccc1)Cc1ccccc1`, the displacement is -9.7%.

In the case of `COc1ccc(C2CC(=O)C3=C(C2)Nc2ccccc2NC3c2ccccc2OCc2ccccc2)cc1OC` (stereo not drawn), the displacement was -17%.

For the compound `Cc1ccc(NC(=O)c2ccc([N+](=O)[O-])o2)cc1C`, the displacement was -2.7%.

Take `O=C1CC(N2CCN(C3CC(=O)N(CCc4ccccc4)C3=O)CC2)C(=O)N1CCc1ccccc1` (stereo not drawn): the displacement stood at 2.8%.

With `O=C1C2C3C=CC(C4CC34)C2C(=O)N1Cc1ccc(F)cc1` (stereo not drawn), the displacement was -8.1%.

As to `CCCOc1ccc(Br)cc1/C=C(/C#N)c1nc2ccc(C)cc2[nH]1`, the displacement came out at 69.3%.

As for `O=c1nc2cc3[nH]c4c(=O)c5ccccc5c4[nH]c3cc2n1`, the displacement was 23.5%.

Turning to `O=C(Oc1c(Br)cc(Br)cc1/C=N/NC(=O)c1ccccn1)c1ccc2c(c1)OCO2`, the displacement was found to be 47.9%.

As for `Cc1ccc(C)c(COc2ccc3c4c(c(=O)oc3c2C)CCC4)c1`, the displacement is 10.1%.

On to `Cc1cccc(OCC(=O)Nc2cccc(C(=O)O)c2)c1C`, for which the displacement worked out at 16.8%.

With `COc1ccc(OC)c(NC(=S)NC(NC(=O)c2cccc(I)c2)C(Cl)(Cl)Cl)c1` (stereo not drawn), the displacement amounted to 0%.

With `O=C(CSc1nnc(-c2ccco2)o1)Nc1ccc(F)cc1`, the displacement is -11.2%.

Consider `O=C1C(=O)N(c2cccc(Cl)c2)C(c2ccccc2)/C1=C(\O)c1ccccc1` (stereo not drawn), for which the displacement is 1%.

Regarding `O=C(Nc1ccc(S(=O)(=O)N2CCCCCC2)cc1)c1ccc(Cl)cc1Cl`, the displacement stood at 2.9%.

`COc1cccc(NC(=O)C(=O)NCCN(C)C)c1`: the displacement stood at 4%.

Turning to `CCCOc1ccccc1/C=C1/C(=O)NN(c2ccc(C(=O)OCC)cc2)C1=O`, the displacement is -1.3%.

Take `NS(=O)(=O)c1ccc(CNC(=O)c2ccc(Cl)cc2[N+](=O)[O-])cc1`: the displacement was -0.6%.

On to `COc1cc(C=C2C(=O)NC(=O)NC2=O)ccc1OCCOc1ccc([N+](=O)[O-])cc1`, for which the displacement was 15.5%.

Consider `COc1ccc(C(=O)Nc2ccc3oc(-c4cc(Cl)c(OC)c(Cl)c4)nc3c2)cc1OC`, for which the displacement is -9.3%.

On to `COc1ccc(-n2cnc3sc(C)c(C)c3c2=O)cc1`, for which the displacement is 0.9%.

In the case of `O=[N+]([O-])c1cc(C=Nc2cccc3nsnc23)c(O)c2ccccc12`, the displacement is -1%.

In the case of `COc1ccc(/C=C(\NC(=O)c2ccccc2)C(=O)NN)cc1OC`, the displacement is -10.6%.
